PubChem BioAssay AID686970 (National Center for Advancing Translational Sciences (NCATS), 2013)
Out of some 360,000 compounds screened, about 6,000 (1.7%) were called active. The inconclusive results got no clear call from the source; some entries with a clear call stand among them for comparison. Calls come from the whole dose curve; as a rule, active = well fitted cell-killing curve with a large enough effect; inconclusive = small, poorly fitted or top-dose-only effect, or effect the other way; inactive = flat fitted curve, though single readings scatter. No potency is given beside an inconclusive call; the fits are too rough.

Assay: qHTS for induction of synthetic lethality in tumor cells producing 2HG: qHTS for the HT-1080-NT fibrosarcoma cell line;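 note: NT is the 2HG producing partner of a matched IDH1 knockdown line; nearly all actives have a fitted effect of over 55% in size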;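 for activity, negative = less viability: 0% = DMSO-treated cells and -100% = media-only wells without cells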
Settings: HT-1080-NT fibrosarcoma viability, CellTiter-Glo ATP luminescence, 48 h; activity, negative = less viability: at 46.1 µM (top of the series) unless noted
Procedure, shortened: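 Luminescent CellTiter-Glo readout after 48 hours of compound exposure at 37 degrees C defined viability of HT-1080-NT cells. Activity was normalized to DMSO wells and cell-free media wells; concentration-response curves were fitted and assigned curve classes.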
Potency is the fitted concentration of half-maximal effect; tags give direction and shape of the fitted curve.

Structure (SMILES) | Potency | activity, negative = less viability
COc1ccc(C(OCC(O)CNCCc2ccccc2)c2ccc(OC)cc2)cc1 (configuration not stated) | active: 23.1 µM | –
CC/C(=N\NC(=O)CCC(=O)NCc1ccccc1)c1ccc(O)cc1 | – | inactive: 1.15%
COc1ccc(OC)c(C2CC(=O)OC3=C2C(=O)CC(C)(C)C3)c1 (configuration not stated) | – | inactive: 19.9%
CNC(=O)c1cc2ncc(C(F)(F)F)cc2s1 | inconclusive [rising, partial curve] | –
COc1ccc(O)c(/C=N/NC(=O)c2cc(=O)[nH]c3ccccc23)c1 | inconclusive [cytotoxic, single point] | –
COCCN(C(=S)Nc1c(C)cc(C)cc1C)C(C)c1cccs1 (configuration not stated) | – | inactive: -7.19%
CCOC(=O)c1c(C)nc2sc3c(=O)n(-c4ccc(C(C)=O)cc4)cnc3c2c1-c1ccc(OC)cc1 | – | inactive: 12.3%
COC(=O)[C@@]12C[C@@H](CC(=O)NCC3CCCCC3)C(=O)N(Cc3ccco3)C1=CCC(C)(C)C2 | inconclusive [cytotoxic, single point] | –
O=C(c1cccs1)N1CCC(C(=O)N2CCN(Cc3ccc4c(c3)OCO4)CC2)CC1 | – | inconclusive: 31.1%
CC(=O)C(=Cc1ccc(Cl)cc1)C(=O)c1ccccc1 | inconclusive [cytotoxic, full curve] | –
COc1ccc(CC2(C)OC(c3ccc(Cl)cc3)=NN2C(C)=O)cc1 (configuration not stated) | inconclusive [cytotoxic, single point] | –
COc1ccc(NS(=O)(=O)c2cccc(C(=O)N/N=C/c3c(F)c(F)c(F)c(F)c3F)c2)cc1 | inconclusive [cytotoxic, single point] | –
O=C(N/N=C/c1cccc2cccnc12)c1ccccc1O | inconclusive [cytotoxic, partial curve] | –
N#CCOc1ccccc1/C=C/c1nc2ccccc2c(=O)[nH]1 | – | inactive: -12.8%
Cc1noc(C)c1NC(=O)N(C)C[C@@H]1Oc2cc(Br)ccc2S(=O)(=O)N([C@H](C)CO)C[C@@H]1C | – | inactive: 9.43%
Cc1c(NC(=O)c2cc(-c3ccc(O)cc3)on2)c(=O)n(-c2ccccc2)n1C | inconclusive [cytotoxic, partial curve] | –
Cc1cccc(C(=O)NCC(c2ccco2)N2CCc3ccccc32)c1 (configuration not stated) | – | inactive: -15%
CCCOc1nc2c(c(=O)n(C)c(=O)n2C)n1Cc1cccc2ccccc12 | – | inactive: 9.56%
COc1ccc(-c2[nH]ncc2N=Nc2ccccc2)cc1 | active: 16.4 µM | –
CCCc1ccc(C(=O)NNc2ccccc2F)cc1 | – | inconclusive: -2.2% [cytotoxic]
Cc1ccc(-c2nc3ccc(Cl)cn3c2Cc2cccc(F)c2)cc1 | inconclusive [cytotoxic, single point] | –
COc1ccc(NC(=O)/C(C#N)=C/c2ccc(Sc3nncn3C)c([N+](=O)[O-])c2)cc1 | inconclusive [cytotoxic, partial curve] | –
N#CC1=C(N)OC2=C(CCc3ccccc32)C1c1ccccc1Cl (configuration not stated) | active: 7.31 µM | –
COC(=O)c1ccc2c(c1O)C(=O)c1ccccc1C2=O | inconclusive [cytotoxic, single point] | –

Structure (SMILES) | Potency | activity, negative = less viability
Cc1nonc1CN(C)C(=O)c1ccc(OC2CCN(C(=O)c3cccnc3)CC2)cc1 | – | inactive: 0.351%
CCc1ccc(CNc2ccc(N3CCN(C(C)=O)CC3)cc2)cc1 | – | inactive: -3.34%
COC(=O)[C@@]1(Sc2ccc(C)cc2)CC(=O)N(c2cccc(SC)c2)[C@@H]1c1ccccc1 | – | inactive: -37.1%
COCc1nnc(NC(=O)c2ccc(S(=O)(=O)N3CCCc4ccccc43)cc2)o1 | active: 14.6 µM | –
CCC(C)OC(=O)c1[nH]c2c(c1C)C(=O)CC(c1ccc(N(C)C)cc1)C2 (configuration not stated) | inconclusive [cytotoxic, single point] | –
COc1ccc2nc(NC(=O)Nc3ccccc3OC)sc2c1 | inconclusive [cytotoxic, partial curve, poor fit] | –
CC(C)C[C@H]1CN=C(Nc2ccccc2)N1CCc1ccc(F)cc1 | inconclusive [cytotoxic, single point] | –
O=C(/C=C/c1ccc2c(c1)OCO2)Nc1nc(-c2ccccc2)cs1 | – | inactive: -0.744%
COc1cccc2c1C(=O)c1c(O)c3c(c(O)c1C2=O)C[C@](O)(C(C)=O)C[C@H]3O[C@@H]1C[C@@H](N)[C@@H](O)[C@@H](C)O1 | active: 0.651 µM | –
O=C(N/N=C/c1ccsc1)c1cc2ccccc2o1 | – | inactive: 3.41%
COC(=O)c1cnc(Nc2nc(C(N)Cc3ccc(Cl)cc3)cs2)nc1C(F)(F)F (configuration not stated) | inconclusive [cytotoxic, single point] | –
Cc1ccc(NC(=O)c2cc(S(=O)(=O)N3CCc4ccccc43)cn2C)cc1C | inconclusive [cytotoxic, partial curve, poor fit] | –
O=C(O)c1ccc(N/N=C/c2ccc(OC(=O)c3cccc(Cl)c3)cc2)cc1 | – | inactive: -0.772%
CCOc1cc(CNCCO)c(Cl)cc1OCC(=O)NCCc1ccccc1 | – | inactive: 1.4%
CCCN1C(=O)c2ccccc2NC1c1ccc(Br)cc1 (configuration not stated) | – | inconclusive: -1.1% [cytotoxic]
Cc1ccc(NS(=O)(=O)c2ccc(NC(=O)c3ccc(Br)o3)cc2)c(C)c1 | inconclusive [cytotoxic, single point] | –
COC(C[C@@H]1O[C@@H]1[C@H](O)[C@H](C)OCc1ccccc1)OC | – | inactive: -0.0452%
N#Cc1c(NC(=O)CSc2nc(-c3ccco3)cc(C(F)(F)F)n2)sc2c1CCCC2 | inconclusive [cytotoxic, single point] | –
Cc1ccc(S(=O)(=O)N2C[C@H]3[C@H]4C(=O)N(c5ccccc5)C(=O)[C@H]4C[C@H](OC(=O)NC4CCCC4)[C@@]3(O)C2)cc1 | – | inactive: -0.967%
CCOc1ccccc1NC(=O)CCS(=O)(=O)c1ccc2c(c1)CC(C)N2C(C)=O (configuration not stated) | – | inactive: -3.24%
COC(=O)C1Cc2c([nH]c3ccccc23)C2(CCN(Cc3ccccc3)CC2)N1 (configuration not stated) | active: 18.4 µM | –
C=CCn1c(SCC(=O)Nc2sccc2C(N)=O)nc2sc(C)c(C)c2c1=O | inconclusive [cytotoxic, partial curve] | –
O=C(/C=C1\NC2(CCCC2)Cc2ccccc21)C(=O)N/N=C/c1ccccc1O | active: 23.1 µM | –
CCN1CCN(c2ccc(NC(=O)c3cc4ccccc4cc3OC)cc2C)CC1 | inconclusive [cytotoxic, single point] | –

Structure (SMILES) | Potency | activity, negative = less viability
CCN(CC)CCNS(=O)(=O)c1ccc(C(=O)NN)cc1 | – | inactive: 4.86%
O=C(NNc1nc(-c2ccccc2)cs1)c1ccc(F)cc1 | inconclusive [rising, partial curve] | –
Cc1ccc2oc(C(=O)NCc3ccccc3)cc(=O)c2c1 | inconclusive [cytotoxic, partial curve, poor fit] | –
O=NNc1nc2ccccc2n1Cc1ccccc1 | inconclusive [cytotoxic, single point] | –
O=C(c1ccc(C(F)(F)F)cc1)N1CCC(=O)N([C@H](COCc2ccc(Cl)cc2)Cc2ccccc2)CC1 | inconclusive [cytotoxic, single point] | –
O=C(Nc1ccc2oc(Cc3ccc(Cl)cc3)nc2c1)c1cccnc1 | inconclusive [cytotoxic, single point] | –
O=C1NN(c2ccccc2)C(=O)/C1=C\c1ccccc1OCC(=O)N1CCOCC1 | inconclusive [cytotoxic, single point] | –
CCCn1c(/C=C/c2ccco2)nc2ccccc21 | – | inactive: 5.77%
C#Cc1ccc(NC(=O)C2(C)CCN2C(=O)CC(c2ccccc2)c2ccccc2)cc1 (configuration not stated) | inconclusive [cytotoxic, single point] | –
O=C(NCCCCCCNC(=O)c1ccc(Br)s1)c1ccc(Br)s1 | inconclusive [cytotoxic, partial curve] | –
O=C(c1ccc(S(=O)(=O)Nc2ccccc2F)cc1)N1CCC1 | – | inactive: 1.34%
O=C(N/N=C/c1cccnc1)C(O)c1ccccc1 (configuration not stated) | – | inactive: 7.43%
Cc1ccc(S(=O)(=O)N2CCN(c3ccccn3)CC2)cc1 | inconclusive [rising, single point] | –
CCC(=O)Oc1ccc(C/C(=N\O)c2ccc(O)cc2O)o1 | inconclusive [cytotoxic, single point] | –
Cc1ccncc1C(N)=O | inconclusive [rising, single point] | –
Cc1nc(Nc2nc(CSc3nc4ccccc4[nH]3)cc(=O)[nH]2)nc2ccccc12 | active: 4.11 µM | –
O=C(NC(c1ccccc1)c1ccc2ccccc2n1)C1CCN(Cc2ccc(Cl)c(Cl)c2)CC1 (configuration not stated) | inconclusive [cytotoxic, single point] | –
O=C(Nc1cccc(F)c1)Nc1cccc(Cl)c1 | inconclusive [cytotoxic, single point] | –
CC(c1ccccc1)N1C(=O)/C(=C/c2ccncc2)SC1=S (configuration not stated) | inconclusive [cytotoxic, single point] | –
Nc1ccc2c(c1)OCCOCCOCCOCCOCCO2 | – | inactive: 0.379%
COc1ccc(OC)c(/C=N/NC(=O)c2cc3c(OC)cc(OC)cc3[nH]2)c1 | inconclusive [cytotoxic, single point] | –
Cc1ccc(S(=O)(=O)n2ccc3cccnc32)cc1 | – | inactive: -3.18%
CCCCCCCCN1C(=O)[C@H](CC(=O)N2CCN(C(=O)OCC)CC2)C[C@@]2(C(=O)OC)CC(C)(C)CC=C12 | inconclusive [cytotoxic, single point] | –
Cc1ccc(C(C(=O)Nc2ccc3c(c2)OCO3)N(C)C(=O)Cc2c[nH]c3ccccc23)cc1 (configuration not stated) | inconclusive [cytotoxic, partial curve, poor fit] | –
